Assay [1] deals with T1, GST-TAK1 (UniProt O43318).
T1 sequence: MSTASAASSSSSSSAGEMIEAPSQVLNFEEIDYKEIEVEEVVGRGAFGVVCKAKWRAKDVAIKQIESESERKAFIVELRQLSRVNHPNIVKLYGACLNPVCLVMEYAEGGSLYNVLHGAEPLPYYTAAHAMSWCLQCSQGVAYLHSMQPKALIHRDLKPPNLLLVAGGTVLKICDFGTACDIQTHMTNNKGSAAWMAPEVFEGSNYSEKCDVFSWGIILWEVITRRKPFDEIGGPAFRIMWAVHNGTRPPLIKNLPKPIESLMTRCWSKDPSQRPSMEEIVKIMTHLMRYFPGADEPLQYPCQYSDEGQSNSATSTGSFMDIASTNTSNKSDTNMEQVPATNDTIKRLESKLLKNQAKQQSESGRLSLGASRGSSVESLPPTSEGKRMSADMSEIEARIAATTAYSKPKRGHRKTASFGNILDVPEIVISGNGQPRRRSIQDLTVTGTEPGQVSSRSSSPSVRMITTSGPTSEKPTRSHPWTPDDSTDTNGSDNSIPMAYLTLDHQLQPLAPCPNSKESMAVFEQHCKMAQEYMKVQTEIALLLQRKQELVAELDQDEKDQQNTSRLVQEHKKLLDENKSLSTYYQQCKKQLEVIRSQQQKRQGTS
Briefly: pull-down; in vitro GST precipitation: GST-TAK1 coupled to glutathione beads incubated with purified His-PLCβ2 for 4 h at 4 °C; immunoblot (Fig. 3d); both purified. (In general: Immunoblotting shows a protein as a band on a membrane.)

By UniProt entry, the sequences of proteins in these tests, tags left out. Where a name states a change or a piece, a line headed by the entry shows the natural chain unless it says otherwise. Chains listed by the source or under a name are the forms on record and can include a tag or linker.
UniProt Q00722: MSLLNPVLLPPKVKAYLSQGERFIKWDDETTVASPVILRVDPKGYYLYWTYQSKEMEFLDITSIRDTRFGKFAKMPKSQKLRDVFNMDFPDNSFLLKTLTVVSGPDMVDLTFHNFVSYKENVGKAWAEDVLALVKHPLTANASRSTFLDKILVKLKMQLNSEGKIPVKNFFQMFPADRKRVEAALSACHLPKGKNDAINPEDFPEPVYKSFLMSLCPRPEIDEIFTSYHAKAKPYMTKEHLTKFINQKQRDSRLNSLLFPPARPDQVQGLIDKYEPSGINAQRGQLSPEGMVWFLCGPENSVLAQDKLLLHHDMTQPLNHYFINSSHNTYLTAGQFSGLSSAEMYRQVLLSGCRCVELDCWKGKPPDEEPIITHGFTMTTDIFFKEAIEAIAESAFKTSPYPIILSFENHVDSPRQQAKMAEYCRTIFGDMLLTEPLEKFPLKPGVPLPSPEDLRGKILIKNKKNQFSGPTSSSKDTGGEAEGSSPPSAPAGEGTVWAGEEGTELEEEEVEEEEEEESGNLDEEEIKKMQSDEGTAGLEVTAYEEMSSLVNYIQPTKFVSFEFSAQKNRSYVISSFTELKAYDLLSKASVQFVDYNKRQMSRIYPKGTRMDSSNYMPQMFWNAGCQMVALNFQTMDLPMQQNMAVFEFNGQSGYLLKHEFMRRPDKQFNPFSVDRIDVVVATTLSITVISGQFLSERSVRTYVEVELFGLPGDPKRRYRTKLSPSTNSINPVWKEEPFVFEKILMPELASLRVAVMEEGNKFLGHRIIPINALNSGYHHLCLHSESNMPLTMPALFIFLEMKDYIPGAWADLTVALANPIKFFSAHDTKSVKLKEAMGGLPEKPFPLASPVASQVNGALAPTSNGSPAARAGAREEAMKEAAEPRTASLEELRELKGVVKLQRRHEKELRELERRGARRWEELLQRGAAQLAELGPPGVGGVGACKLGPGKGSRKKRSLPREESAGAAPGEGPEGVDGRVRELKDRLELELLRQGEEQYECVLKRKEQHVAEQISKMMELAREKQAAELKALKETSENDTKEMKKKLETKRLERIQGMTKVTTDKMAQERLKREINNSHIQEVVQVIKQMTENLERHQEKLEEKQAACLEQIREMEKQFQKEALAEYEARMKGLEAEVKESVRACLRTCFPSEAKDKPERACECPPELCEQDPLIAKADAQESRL
phospholipase-inactive mutant of PLCβ2 (H327 and H374 mutated to alanine) (Q00722, form named): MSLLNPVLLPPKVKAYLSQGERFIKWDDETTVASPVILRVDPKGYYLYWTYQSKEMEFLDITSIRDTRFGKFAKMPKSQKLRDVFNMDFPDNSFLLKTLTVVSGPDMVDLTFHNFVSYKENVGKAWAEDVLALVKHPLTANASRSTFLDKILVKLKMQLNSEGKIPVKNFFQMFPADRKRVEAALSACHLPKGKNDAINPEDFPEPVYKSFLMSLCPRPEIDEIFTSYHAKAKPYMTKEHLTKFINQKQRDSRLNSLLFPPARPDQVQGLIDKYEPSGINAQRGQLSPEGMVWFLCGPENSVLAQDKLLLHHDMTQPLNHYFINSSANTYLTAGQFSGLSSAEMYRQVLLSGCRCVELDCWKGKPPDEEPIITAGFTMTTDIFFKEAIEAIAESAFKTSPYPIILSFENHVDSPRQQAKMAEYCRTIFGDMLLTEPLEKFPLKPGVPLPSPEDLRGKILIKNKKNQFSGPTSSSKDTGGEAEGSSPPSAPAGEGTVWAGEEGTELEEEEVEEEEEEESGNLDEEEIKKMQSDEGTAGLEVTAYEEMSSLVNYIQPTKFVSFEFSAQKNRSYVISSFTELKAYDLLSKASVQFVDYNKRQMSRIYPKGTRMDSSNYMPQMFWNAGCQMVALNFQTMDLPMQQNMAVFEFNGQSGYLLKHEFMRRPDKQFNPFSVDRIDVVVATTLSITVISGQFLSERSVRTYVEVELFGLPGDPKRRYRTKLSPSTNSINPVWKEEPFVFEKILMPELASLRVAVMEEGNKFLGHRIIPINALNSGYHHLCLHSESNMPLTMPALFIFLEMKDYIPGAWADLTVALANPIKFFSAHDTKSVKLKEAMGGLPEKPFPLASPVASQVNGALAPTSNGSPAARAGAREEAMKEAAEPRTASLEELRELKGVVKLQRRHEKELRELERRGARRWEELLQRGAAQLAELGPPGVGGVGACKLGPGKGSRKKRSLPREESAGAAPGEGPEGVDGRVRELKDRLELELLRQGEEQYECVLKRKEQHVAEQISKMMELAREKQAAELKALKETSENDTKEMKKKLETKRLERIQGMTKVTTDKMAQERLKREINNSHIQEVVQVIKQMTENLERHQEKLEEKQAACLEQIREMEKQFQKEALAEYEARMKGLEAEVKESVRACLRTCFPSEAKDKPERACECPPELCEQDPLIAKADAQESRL
UniProt A3KGF7: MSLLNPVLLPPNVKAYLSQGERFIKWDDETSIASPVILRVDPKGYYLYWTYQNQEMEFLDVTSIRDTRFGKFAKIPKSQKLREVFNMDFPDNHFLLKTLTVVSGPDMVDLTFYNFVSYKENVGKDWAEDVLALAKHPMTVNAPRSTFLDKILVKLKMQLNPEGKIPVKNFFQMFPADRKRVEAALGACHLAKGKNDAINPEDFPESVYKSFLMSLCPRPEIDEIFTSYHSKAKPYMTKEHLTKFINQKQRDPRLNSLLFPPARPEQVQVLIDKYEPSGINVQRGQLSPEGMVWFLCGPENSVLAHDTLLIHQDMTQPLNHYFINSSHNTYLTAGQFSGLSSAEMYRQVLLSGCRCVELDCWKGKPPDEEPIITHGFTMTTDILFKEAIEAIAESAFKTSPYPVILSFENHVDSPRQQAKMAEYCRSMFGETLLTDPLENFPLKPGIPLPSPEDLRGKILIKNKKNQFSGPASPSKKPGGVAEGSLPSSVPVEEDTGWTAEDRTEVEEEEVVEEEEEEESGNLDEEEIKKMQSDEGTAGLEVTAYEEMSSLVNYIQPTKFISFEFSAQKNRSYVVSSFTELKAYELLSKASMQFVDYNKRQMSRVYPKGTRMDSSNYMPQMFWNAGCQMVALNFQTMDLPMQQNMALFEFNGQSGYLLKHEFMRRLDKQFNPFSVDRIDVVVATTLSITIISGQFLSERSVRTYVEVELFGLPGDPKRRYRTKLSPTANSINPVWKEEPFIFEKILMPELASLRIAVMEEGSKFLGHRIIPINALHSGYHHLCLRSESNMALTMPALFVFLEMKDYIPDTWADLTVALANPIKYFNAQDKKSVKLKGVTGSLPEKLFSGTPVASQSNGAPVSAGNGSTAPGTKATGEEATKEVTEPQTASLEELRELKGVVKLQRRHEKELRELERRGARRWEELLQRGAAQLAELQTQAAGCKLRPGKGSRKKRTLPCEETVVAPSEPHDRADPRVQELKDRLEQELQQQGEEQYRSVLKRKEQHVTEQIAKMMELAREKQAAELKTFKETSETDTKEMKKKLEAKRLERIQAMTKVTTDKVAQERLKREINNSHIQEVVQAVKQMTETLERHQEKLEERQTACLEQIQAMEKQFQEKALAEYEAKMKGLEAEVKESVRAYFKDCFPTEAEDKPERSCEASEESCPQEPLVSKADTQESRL

For assay [2], the target named is T1, GST-TAK1. The assay is described as follows: pull-down; GST-TAK1 coupled to glutathione beads incubated with RAW264.7 cell lysate for 4 h at 4 °C; immunoblot of endogenous PLCβ2 (Fig. 3e); only the target purified.
Assay [3] deals with FLAG-tagged PLCβ2 (phospholipase C β2) (UniProt Q00722). Briefly: co-IP.
For assay [4], the target named is T2, HA-tagged TAK1 (transforming growth factor-β-activated kinase 1) (UniProt O43318).
T2 sequence: T1 sequence
The assay is described as follows: co-IP.

For assay [5], the target named is endogenous PLCβ2 (mouse (endogenous in RAW264.7 and in mouse peritoneal macrophages)) (UniProt A3KGF7). The assay is described as follows: co-IP; endogenous proteins; mouse peritoneal macrophages stimulated with poly(I:C) for the indicated times; lysates incubated with anti-PLCβ2 antibody and Protein G Sepharose overnight at 4 °C (Fig. 3f).
For the next assay, the target named is T3, FLAG-tagged PLCβ1 (UniProt Q9NQ66).
T3 sequence: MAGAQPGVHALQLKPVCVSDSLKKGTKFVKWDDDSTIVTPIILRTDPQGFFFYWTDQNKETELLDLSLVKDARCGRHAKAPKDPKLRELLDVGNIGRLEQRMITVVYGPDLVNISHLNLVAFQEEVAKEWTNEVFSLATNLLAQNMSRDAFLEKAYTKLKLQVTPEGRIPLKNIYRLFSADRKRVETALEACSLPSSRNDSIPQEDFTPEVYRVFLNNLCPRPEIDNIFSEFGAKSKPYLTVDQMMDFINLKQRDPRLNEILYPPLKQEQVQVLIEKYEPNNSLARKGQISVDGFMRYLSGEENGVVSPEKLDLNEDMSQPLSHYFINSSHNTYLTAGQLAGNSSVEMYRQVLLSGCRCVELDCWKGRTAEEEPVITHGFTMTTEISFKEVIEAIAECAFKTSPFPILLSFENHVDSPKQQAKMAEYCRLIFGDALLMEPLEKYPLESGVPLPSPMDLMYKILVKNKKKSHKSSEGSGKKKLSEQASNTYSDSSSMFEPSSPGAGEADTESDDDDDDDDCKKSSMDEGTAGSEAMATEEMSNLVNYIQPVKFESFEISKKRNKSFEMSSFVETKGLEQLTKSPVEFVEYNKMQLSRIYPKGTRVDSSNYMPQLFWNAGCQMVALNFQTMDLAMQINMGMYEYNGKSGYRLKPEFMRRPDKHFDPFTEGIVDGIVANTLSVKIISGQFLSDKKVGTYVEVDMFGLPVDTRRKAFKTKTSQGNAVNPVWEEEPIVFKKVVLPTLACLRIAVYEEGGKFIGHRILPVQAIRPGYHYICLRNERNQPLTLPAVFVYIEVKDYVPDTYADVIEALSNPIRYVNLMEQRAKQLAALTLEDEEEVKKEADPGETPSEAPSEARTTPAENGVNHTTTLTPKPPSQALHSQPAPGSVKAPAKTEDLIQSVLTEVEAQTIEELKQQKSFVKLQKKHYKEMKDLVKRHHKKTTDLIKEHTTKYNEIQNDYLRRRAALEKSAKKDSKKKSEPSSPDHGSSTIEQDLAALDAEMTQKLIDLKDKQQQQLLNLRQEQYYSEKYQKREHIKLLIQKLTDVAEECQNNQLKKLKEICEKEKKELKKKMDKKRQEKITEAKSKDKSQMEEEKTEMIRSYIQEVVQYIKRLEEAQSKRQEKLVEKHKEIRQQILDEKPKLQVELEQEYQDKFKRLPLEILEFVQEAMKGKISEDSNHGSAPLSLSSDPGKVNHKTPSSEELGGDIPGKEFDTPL
The assay is described as follows: co-IP.

A further assay deals with T4, FLAG-tagged PLCβ3 (UniProt Q01970).
T4 sequence: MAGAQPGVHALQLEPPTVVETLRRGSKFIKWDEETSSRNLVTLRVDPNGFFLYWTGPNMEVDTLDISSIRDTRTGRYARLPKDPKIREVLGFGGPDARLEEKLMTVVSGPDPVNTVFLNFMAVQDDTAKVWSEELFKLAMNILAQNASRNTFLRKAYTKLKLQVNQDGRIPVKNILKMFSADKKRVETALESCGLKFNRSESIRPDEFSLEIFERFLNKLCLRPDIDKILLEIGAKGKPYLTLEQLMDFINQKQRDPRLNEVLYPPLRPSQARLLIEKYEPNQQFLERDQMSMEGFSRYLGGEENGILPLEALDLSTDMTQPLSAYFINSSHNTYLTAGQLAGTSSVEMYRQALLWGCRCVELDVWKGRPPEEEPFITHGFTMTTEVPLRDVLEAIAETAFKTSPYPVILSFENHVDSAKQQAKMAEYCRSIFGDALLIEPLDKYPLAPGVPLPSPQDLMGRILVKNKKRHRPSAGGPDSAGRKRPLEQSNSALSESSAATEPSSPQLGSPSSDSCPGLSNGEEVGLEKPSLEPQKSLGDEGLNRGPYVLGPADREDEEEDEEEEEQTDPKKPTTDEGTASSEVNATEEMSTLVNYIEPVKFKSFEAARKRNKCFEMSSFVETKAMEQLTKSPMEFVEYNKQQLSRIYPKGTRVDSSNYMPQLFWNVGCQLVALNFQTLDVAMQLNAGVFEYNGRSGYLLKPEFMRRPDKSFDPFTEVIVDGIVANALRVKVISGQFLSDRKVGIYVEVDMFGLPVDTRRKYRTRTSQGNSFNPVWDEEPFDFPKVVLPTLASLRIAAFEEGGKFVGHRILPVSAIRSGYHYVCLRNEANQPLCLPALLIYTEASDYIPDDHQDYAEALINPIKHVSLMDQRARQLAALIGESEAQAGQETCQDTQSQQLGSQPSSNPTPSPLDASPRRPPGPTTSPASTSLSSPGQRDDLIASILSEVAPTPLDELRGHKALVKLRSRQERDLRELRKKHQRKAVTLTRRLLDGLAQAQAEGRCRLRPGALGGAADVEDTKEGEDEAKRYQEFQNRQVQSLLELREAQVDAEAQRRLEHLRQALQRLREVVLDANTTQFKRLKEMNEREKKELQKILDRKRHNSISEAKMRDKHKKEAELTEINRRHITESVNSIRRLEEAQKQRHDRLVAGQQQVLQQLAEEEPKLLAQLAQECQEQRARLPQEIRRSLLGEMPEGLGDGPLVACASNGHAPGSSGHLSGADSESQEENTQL
The assay is described as follows: co-IP.

Assay [6] concerns the target phospholipase-inactive mutant of PLCβ2 (H327 and H374 mutated to alanine) (UniProt Q00722). The assay is described as follows: co-IP.

These are yes or no findings as the source states them, for the method shown. For part of these data: In cells and extracts the contact can be indirect. Some entries that bind do so weakly or less than the wild type. For part of these data: Tags and fused reporters may be left off the sequences shown.

On to “purified recombinant His-PLCβ2 (from UniProt Q00722 1-1185) (enzyme)”, for which the binding entry in the assay with GST-TAK1 [1] is recorded as “binds”.

On to “endogenous PLCβ2 (from UniProt A3KGF7 1-1181) (enzyme)”, for which the binding entry with GST-TAK1 [2] is “binds”.

B1: TAB1 (protein, UniProt Q15750 1-504)
chain: MAAQRRSLLQSEQQPSWTDDLPLCHLSGVGSASNRSYSADGKGTESHPPEDSWLKFRSENNCFLYGVFNGYDGNRVTNFVAQRLSAELLLGQLNAEHAEADVRRVLLQAFDVVERSFLESIDDALAEKASLQSQLPEGVPQHQLPPQYQKILERLKTLEREISGGAMAVVAVLLNNKLYVANVGTNRALLCKSTVDGLQVTQLNVDHTTENEDELFRLSQLGLDAGKIKQVGIICGQESTRRIGDYKVKYGYTDIDLLSAAKSKPIIAEPEIHGAQPLDGVTGFLVLMSEGLYKALEAAHGPGQANQEIAAMIDTEFAKQTSLDAVAQAVVDRVKRIHSDTFASGGERARFCPRHEDMTLLVRNFGYPLGEMSQPTPSPAPAAGGRVYPVSVPYSSAQSTSKTSVTLSLVMPSQGQMVNGAHSASTLDEATPTLTNQSPTLTLQSTNTHTQSSSSSSDGGLFRSRPAHSLPPGEDGRVEPYVDFAEFYRLWSVDHGEQSVVTAP
As to B1, the binding entry in assay [3] is given as “no binding”; in assay [4], “binds”.

B2: endogenous TAK1 (enzyme, UniProt Q62073 1-579)
chain: MSTASAASSSSSSSASEMIEAPSQVLNFEEIDYKEIEVEEVVGRGAFGVVCKAKWRAKDVAIKQIESESERKAFIVELRQLSRVNHPNIVKLYGACLNPVCLVMEYAEGGSLYNVLHGAEPLPYYTAAHAMSWCLQCSQGVAYLHSMQPKALIHRDLKPPNLLLVAGGTVLKICDFGTACDIQTHMTNNKGSAAWMAPEVFEGSNYSEKCDVFSWGIILWEVITRRKPFDEIGGPAFRIMWAVHNGTRPPLIKNLPKPIESLMTRCWSKDPSQRPSMEEIVKIMTHLMRYFPGADEPLQYPCQYSDEGQSNSATSTGSFMDIASTNTSNKSDTNMEQVPATNDTIKRLESKLLKNQAKQQSESGRLSLGASRGSSVESLPPTSEGKRMSADMSEIEARIVATAGNGQPRRRSIQDLTVTGTEPGQVSSRSSSPSVRMITTSGPTSEKPARSHPWTPDDSTDTNGSDNSIPMAYLTLDHQLQPLAPCPNSKESMAVFEQHCKMAQEYMKVQTEIALLLQRKQELVAELDQDEKDQQNTSRLVQEHKKLLDENKSLSTYYQQCKKQLEVIRSQQQKRQGTS
For B2, the binding entry in assay [5] is “binds”.

B3: HA-tagged TAK1 (transforming growth factor-β-activated kinase 1) (enzyme, UniProt O43318 1-606)
chain: T1 sequence
As for B3, the binding entry is reported as “no binding” with FLAG-tagged PLCβ1, “binds” in assay [3], “no binding” with FLAG-tagged PLCβ3 and “binds” in assay [6].

The values above are taken from paper PMC6375925.
